Results from PubChem BioAssay AID488969 (Vanderbilt High Throughput Screening Facility, 2010).
In all, about 110,000 compounds were measured (“z-score”: median about -0.1, highest 2% from about 2 on). The list shows a part of the results. Activity calls are given as the source filed them.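 How the source made its calls: active means z-score in the third read window above 3 or below -3; inactive means the rest.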

molecular target: Metabotropic glutamate receptor 8 (Rattus norvegicus) (UniProt P70579); assay: rat mGluR8 modulators via GIRK flux, primary screen, cell-based, thallium flux, HTS (AID 488969); conditions: HEK293 rat mGluR8, GIRK (G protein-gated inwardly rectifying potassium channel) thallium flux, FluoZin2; at 10 µM; stronger effect = higher value; submaximal glutamate (EC20) added with thallium
Sequence of UniProt P70579 (P70579 whole entry, looked up): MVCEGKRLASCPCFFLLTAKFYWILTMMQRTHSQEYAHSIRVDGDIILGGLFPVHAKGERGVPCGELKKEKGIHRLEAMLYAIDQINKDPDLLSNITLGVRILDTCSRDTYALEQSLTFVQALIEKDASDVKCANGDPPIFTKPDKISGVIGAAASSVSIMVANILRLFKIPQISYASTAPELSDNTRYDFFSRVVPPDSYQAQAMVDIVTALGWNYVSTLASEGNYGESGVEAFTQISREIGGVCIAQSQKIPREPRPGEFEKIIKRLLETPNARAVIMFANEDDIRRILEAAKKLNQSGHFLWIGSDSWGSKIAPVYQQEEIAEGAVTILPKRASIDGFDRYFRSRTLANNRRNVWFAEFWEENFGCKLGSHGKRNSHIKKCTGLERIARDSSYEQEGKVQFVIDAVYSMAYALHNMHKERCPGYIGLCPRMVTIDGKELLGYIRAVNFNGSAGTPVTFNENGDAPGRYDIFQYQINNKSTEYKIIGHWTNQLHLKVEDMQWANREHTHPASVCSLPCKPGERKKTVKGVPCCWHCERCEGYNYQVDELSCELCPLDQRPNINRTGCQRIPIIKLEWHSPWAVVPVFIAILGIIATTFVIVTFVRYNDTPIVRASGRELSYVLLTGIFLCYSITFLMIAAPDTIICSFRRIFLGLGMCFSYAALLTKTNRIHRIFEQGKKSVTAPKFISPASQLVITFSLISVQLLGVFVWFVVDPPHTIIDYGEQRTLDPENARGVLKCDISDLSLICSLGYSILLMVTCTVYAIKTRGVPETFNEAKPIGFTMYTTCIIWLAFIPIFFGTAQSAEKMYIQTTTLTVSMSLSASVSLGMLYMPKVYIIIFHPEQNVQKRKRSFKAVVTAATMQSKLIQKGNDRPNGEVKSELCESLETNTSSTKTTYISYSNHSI

Row | SMILES | z-score
1 | Cc1cc(NO)c(C(C)C)cc1N=O | -0.242
2 | O=C(N/C(=C\c1ccc(Br)cc1)c1nc2ccccc2[nH]1)c1ccco1 | 0.053
3 | COc1ccc(NC(=O)Nc2ccccc2F)cc1 | -0.113
4 | COc1ccccc1CNC(=O)C(CCSC)NS(=O)(=O)c1ccc2c(c1)oc(=O)n2C (stereo unspecified) | -0.0879
5 | COc1ccc(/C(N)=N/OC(=O)c2cccc([N+](=O)[O-])c2C)cc1OC | 0.671
6 | Cc1ccc(NC(=O)N/C=C/c2ccccc2)cc1 | 0.0496
7 | CC(C)NS(=O)(=O)c1ccc(NC(=O)C(C)Oc2ccc(C(=O)c3ccccc3)cc2)cc1 (stereo unspecified) | 0.21
8 | COc1ccc(C(=O)N2CCN(c3ccc(C)cc3)CC2)cc1OC | -0.296
9 | Cc1oc(C(C)(C)C)cc1C(=O)Nc1ccc2c(c1)OCCO2 | -0.556
10 | CC(C)(C)Nc1nc2nonc2nc1NC(C)(C)C | -0.28
11 | CCOC(=O)CN1C(=O)C(=O)c2cccc(C)c21 | -0.0105
12 | COc1ccc(C(=O)c2c(C(F)(F)F)oc3c2C(=O)c2ccccc2C3=O)cc1OC | -0.0606
13 | CC(C)CC(=O)Nc1cc([N+](=O)[O-])ccc1Cl | -0.0735
14 | CCOC(=O)N1CCN(S(=O)(=O)c2ccc(C(=O)Nc3nnc(CC)o3)cc2)CC1 | -0.247
15 | Cc1ccc(-c2c(C(=O)N(C)Cc3ccccc3)oc(=O)c3ccccc23)cc1 | -0.139
16 | Cc1ccc2c(Cl)cc(Cl)c(OCC(=O)OCC(=O)Nc3ccc(C#N)cc3)c2n1 | -0.255
17 | O=c1c2sccc2n(Cc2cccc(F)c2)c(=O)n1-c1ccc(F)cc1 | -0.583
18 | O=C1CSC(c2ccccn2)N1c1ccc2ccccc2c1 (stereo unspecified) | -0.0313
19 | CCOc1cc(/C=C2\SC(=N)N(c3nonc3N)C2=O)ccc1OCC(N)=O | -0.0536
20 | COc1ccc(S(=O)(=O)Cc2ccc(C(=O)N3CCN(c4cc(Cl)ccc4C)CC3)o2)cc1 | 0.0669
21 | COC(=O)C1CCN(S(=O)(=O)c2cn(C)c(=O)n(C)c2=O)CC1 | -0.112
22 | N=C1C(c2nc3ccccc3[nH]2)=C(O)CN1c1ccc(F)cc1 | 0.0438

Row | SMILES | z-score
23 | Cc1cccc(OCCNc2cc(N3CCOCC3)ccc2[N+](=O)[O-])c1 | -0.314
24 | O=C(CSCCO)Nc1ccc(C23CC4CC(CC(C4)C2)C3)cc1 | -0.16
25 | CCc1nnc(NC(=O)CSc2nnc(-c3ccoc3C)n2-c2ccccc2)s1 | -0.156
26 | CC(=O)c1ccc(N2CCN(C(=O)c3cc(-c4ccc5c(c4)OCO5)nc4ccccc34)CC2)cc1 | -0.276
27 | Cc1ccc(NC(=O)c2sccc2SCc2cccc(C(F)(F)F)c2)cc1 | -0.19
28 | Cc1cc([N+](=O)[O-])cc2c1NC(=O)C2(O)N1CCCCCC1 (stereo unspecified) | -0.0486
29 | Cc1cc(NC(=O)CSc2nc3c(c(=O)n(C)c(=O)n3C)n2C(C)C)no1 | 0.206
30 | COc1cccc(C2=NOC(C(=O)Nc3ccc(C(C)=O)cc3)C2)c1 (stereo unspecified) | -0.778
31 | COc1cc(/C=N/NC(=O)COc2cccc(F)c2)ccc1OS(=O)(=O)c1ccc(C)cc1 | -0.0387
32 | Cc1ccnc(NC(=S)NC(=O)c2ccco2)c1 | 2
33 | CCOC(=O)CSC1=C(C#N)C(c2ccc(C)cc2)C(C(=O)OC)C(=O)N1 (stereo unspecified) | -0.932
34 | CCOc1ccc(S(=O)(=O)N(CC(=O)N/N=C/c2ccc(-c3ccc([N+](=O)[O-])cc3)o2)c2ccccc2)cc1 | -0.0678
35 | FC(F)(F)C(Oc1nc(Nc2ccc(Cl)cc2)nc(N2CCOCC2)n1)C(F)(F)F | 0.0647
36 | CCc1nnc(NC(=O)COC(=O)CN2C(=O)c3ccccc3C2=O)s1 | 1.33
37 | Nc1nc(N2CCOCC2)nc(N(c2ccccc2)c2ccccc2)n1 | -0.39
38 | Cc1nn(C)c(C(=O)NCc2ccc(Cl)cc2)c1Cl | -0.28
39 | CS(=O)(=O)N1CCN(c2ccc(NC(=O)CSc3ccc(Cl)cc3)cc2)CC1 | 0.105
40 | CN(c1ccccc1C(=O)Nc1ccc(S(=O)(=O)N2CCCCC2)cc1)S(C)(=O)=O | -0.137
41 | CCn1c(NC2CCCCC2)nc2ccccc21 | 0.351
42 | CCOC(=O)N1CCN(CCC(=O)Nc2ccc(C)cc2)CC1 | -0.64
43 | N#CCSc1nc2scc(-c3cccs3)c2c(=O)n1CCc1ccccc1 | 0.726
44 | CCCc1cc(C(=O)Cc2ccc(F)cc2)c(O)cc1O | -0.505

Row | SMILES | z-score
45 | COC(=O)C1=C(N)Oc2cc(C)n(CC3CCCO3)c(=O)c2C1c1ccc(Cl)c(Cl)c1 (stereo unspecified) | -1.34
46 | NC(=O)C(c1ccc(Cl)cc1Cl)c1ncc(C(F)(F)F)cc1Cl (stereo unspecified) | -0.00615
47 | Cc1cccc(N2C(=O)CC(N3CCN(C(=O)c4ccccc4)CC3)C2=O)c1 (stereo unspecified) | 0.683
48 | CCOC(=O)c1c(NC(=O)/C=C/c2ccc3c(c2)OCO3)sc(C)c1C | -0.151
49 | C=CCN1C(=O)/C(=C2/C(=O)N(CC(=O)O)c3ccccc32)S/C1=N/c1nccs1 | -0.107
50 | COc1ccc(-n2nnnc2S(=O)(=O)Cc2ccc(C(=O)O)cc2)cc1 | 0.0183
51 | C=CCn1c(-c2cccn(Cc3ccccc3)c2=O)n[nH]c1=S | -0.000758
52 | O=C(/C(C=Nc1ccc(F)cc1)=C(/O)c1ccco1)C(F)(F)F | -0.439
53 | c1coc(CNc2ncnc3c2oc2ccccc23)c1 | -0.21
54 | O=C(Cn1c(C(F)(F)F)nc2ccccc21)N1CCCC1 | -0.117
55 | Cc1ccc(S(=O)(=O)N(C)C)cc1-n1c(SCC(=O)Nc2ccc(F)cc2Cl)nc2ccccc2c1=O | -0.461
56 | O=C(NNC(=O)c1cccs1)c1ccc(Cl)c([N+](=O)[O-])c1 | -0.409
57 | O=C1c2cnc3nc(SCc4ccc(Cl)cc4)nn3c2CC2c3ccccc3CCN12 (stereo unspecified) | -1.6
58 | Cc1cccc(N2CN=c3s/c(=C\c4ccncc4)c(=O)n3C2)c1 | -0.028
59 | Cc1csc(SCC(=O)c2ccc(S(=O)(=O)N3CCOCC3)cc2)n1 | -0.0519
60 | CCc1ccc2nc3sc(C(=O)Nc4nnc(CC)s4)c(N)c3cc2c1 | -0.714
61 | COC(=O)C1C(O)=C(C=NCc2ccccc2)C(=O)CC1(C)C (stereo unspecified) | -0.152
62 | COC(=O)c1ccc(NC(=O)C2CC(=O)N(c3ccc(C)cc3)C2)cc1 (stereo unspecified) | 0.761
63 | CCOC(=O)C(CC)(CC)C(=O)/C=C/c1ccc(Br)cc1 | -0.128
64 | CN1c2ccccc2C(C)(C)C12C=Nc1c(ccc3ccccc13)O2 (stereo unspecified) | -0.325
65 | CCOc1cc2[nH]c(=S)n(CCN3CCC(C)CC3)c(=O)c2cc1OCC | 0.809
66 | CCOc1cccc(N2C(=O)CC(N3CCC(C(N)=O)(N4CCCCC4)CC3)C2=O)c1 (stereo unspecified) | -0.0822

Row | SMILES | z-score
67 | CCCN1CCN(C(=O)CCCn2c(C)c3cnn(-c4ccccc4)c(=O)c3c2C)CC1 | 0.112
68 | CC1CSc2ccccc2NC1=S (stereo unspecified) | active: 3.72
69 | O=C(CNS(=O)(=O)c1ccc2ccccc2c1)OCC(=O)c1ccc(Br)s1 | -0.175
70 | O=C(NCCO)C(c1ccccc1)c1ccccc1 | 0.56
71 | O=C(Nc1ccc2c(c1)OCCO2)c1ccc(Cl)c(S(=O)(=O)N2CCCCC2)c1 | -0.285
72 | O=C(COc1ccc(Cl)cc1Cl)NCCSc1ccc(Cl)cc1 | -0.0359
73 | Cc1cc(C(=O)NCCCN2CCCC2=O)no1 | -0.444
74 | CN(C)S(=O)(=O)Oc1ccsc1C(=O)Nc1ccc(Cl)c(Cl)c1 | 0.0131
75 | Nc1cccc(CCc2nc3cc4ccccc4cc3[nH]2)c1 | 0.696
76 | Brc1ccc(-c2csc(N3CCC(c4ccccc4)C3)n2)cc1 (stereo unspecified) | -0.0671
77 | Nc1ccc(C(=O)N/N=C2\CCCc3c2[nH]c2ccccc32)cc1 | -0.45
78 | CN(CCC#N)c1ncnc2scc(-c3ccccc3)c12 | 0.579
79 | Cc1cccc(N/C=C/c2onc(C)c2[N+](=O)[O-])c1 | 1.43
80 | COCCOC(=O)c1[nH]c2c(c1C)C(=O)CC(c1ccccc1)C2 (stereo unspecified) | -0.248
81 | O=C1N/C(=C/c2ccc(N3CCCC3)cc2)C(=O)N1c1ccccc1 | -0.886
82 | O=C(COC(=O)/C=C/c1cccs1)NC(c1ccccc1)c1ccccc1 | 0.053
83 | FC(F)Oc1ccc(NC(=S)NN2CCOCC2)cc1 | -0.416
84 | CC(C)CCNC(=O)NC(=O)COC(=O)C1CCN(S(=O)(=O)c2ccccc2F)CC1 | 0.03
85 | COc1ccc(/C=N/NC(=O)c2cc(-c3ccccc3OC(C)C)nc3ccccc23)cc1CN1CCOCC1 | -0.266
86 | Cc1ccc(C)c(-n2nnnc2SCC(=O)Nc2c(C)n(C)n(-c3ccccc3)c2=O)c1 | 1.63
87 | c1ccc(-c2cc(-c3nnc4n3N=C(c3ccc5ccccc5c3)CS4)[nH]n2)cc1 | -0.0208
88 | Cc1cc(C)c(C#N)c(N2CCN(CCOc3ccc(Cl)cc3)CC2)n1 | -0.184

Row | SMILES | z-score
89 | CCOC(=O)c1ccc(NC(=O)CC2C(=O)N(c3ccc(F)cc3)C(=O)N2CCC(C)C)cc1 (stereo unspecified) | -0.0747
90 | COC(=O)C1=C(C)N(Cc2ccco2)C(=O)/C1=C\c1ccc(N(C)C)cc1 | -0.621
91 | CN(Cc1ccccc1)c1nc2c(c(=O)[nH]c(=O)n2C)n1CCCc1ccccc1 | -0.199
92 | COC(=O)c1ccc2c(=O)n(Cc3ccco3)c(SCC(=O)Nc3ccc(C)c(Cl)c3)nc2c1 | 0.24
93 | COc1ccc(-c2nnc(SCC(=O)NCc3cccs3)n2C(C)C)cc1 | -0.0199
94 | COc1cc2c(cc1OC)CN(CC(=O)Nc1ccc(C)cc1)CC2 | 0.353
95 | Cc1c(Cl)cccc1NC(=O)CC1NCCNC1=O (stereo unspecified) | 0.148
96 | COc1ccc(CC(=O)OC(C)CN2CCCC2)cc1 (stereo unspecified) | 0.0072
97 | COc1c(C)cccc1C(=O)NC(=S)Nc1ccc2c(c1)Cc1ccccc1-2 | -0.0787
98 | O=C(Cn1ncc2c(=O)oc3ccccc3c21)NCC1CCCO1 (stereo unspecified) | -0.106
99 | O=C(Nc1cc(Cl)cc(Cl)c1)C(NCCO)c1ccccc1 (stereo unspecified) | 0.0494
100 | O=C(NC(=S)Nc1ccc(N2CCOCC2)c(Cl)c1)c1sc2ccccc2c1Cl | 0.295
101 | COc1ccc(OC)c(-c2cc(C(=O)Nc3cccc(Cl)c3)no2)c1 | 0.191
102 | O=C(N/N=C/c1ccccc1)c1[nH]c2ccc(Br)cc2c1-c1ccccc1 | -0.741
103 | O=C(NC(NC(=O)c1ccccc1)C(=O)c1ccccc1)c1ccccc1 | -0.143
104 | Cc1ccc(SCC(=O)NC(=O)NCc2ccco2)c(C)c1 | -0.129
105 | Cc1cc(NC(=O)Nc2ccccc2)n(-c2ccccc2)n1 | active: 10.5
106 | O=C(c1ccc(Br)cc1)c1cc(-c2ccccn2)c(N2CCOCC2)s1 | -0.353
